# From paper PMC4336329 (PLoS ONE, 2015)
# The campaign covered roughly 310,000 compounds. About 14,000 (4.5%) showed an effect of 50% or more. Effects have a minus sign here. The list shows a part of the results.
# Target: human ether-à-go-go-related gene (hERG) potassium channel (human, UniProt Q12809)
# Assay: primary screen, population patch clamp on CHO cells stably expressing hERG
# 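Further: peak tail current of the secondary pulse compared with the same well before compound.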
# Chain of human ether-à-go-go-related gene (hERG) potassium channel (Q12809 whole entry, looked up): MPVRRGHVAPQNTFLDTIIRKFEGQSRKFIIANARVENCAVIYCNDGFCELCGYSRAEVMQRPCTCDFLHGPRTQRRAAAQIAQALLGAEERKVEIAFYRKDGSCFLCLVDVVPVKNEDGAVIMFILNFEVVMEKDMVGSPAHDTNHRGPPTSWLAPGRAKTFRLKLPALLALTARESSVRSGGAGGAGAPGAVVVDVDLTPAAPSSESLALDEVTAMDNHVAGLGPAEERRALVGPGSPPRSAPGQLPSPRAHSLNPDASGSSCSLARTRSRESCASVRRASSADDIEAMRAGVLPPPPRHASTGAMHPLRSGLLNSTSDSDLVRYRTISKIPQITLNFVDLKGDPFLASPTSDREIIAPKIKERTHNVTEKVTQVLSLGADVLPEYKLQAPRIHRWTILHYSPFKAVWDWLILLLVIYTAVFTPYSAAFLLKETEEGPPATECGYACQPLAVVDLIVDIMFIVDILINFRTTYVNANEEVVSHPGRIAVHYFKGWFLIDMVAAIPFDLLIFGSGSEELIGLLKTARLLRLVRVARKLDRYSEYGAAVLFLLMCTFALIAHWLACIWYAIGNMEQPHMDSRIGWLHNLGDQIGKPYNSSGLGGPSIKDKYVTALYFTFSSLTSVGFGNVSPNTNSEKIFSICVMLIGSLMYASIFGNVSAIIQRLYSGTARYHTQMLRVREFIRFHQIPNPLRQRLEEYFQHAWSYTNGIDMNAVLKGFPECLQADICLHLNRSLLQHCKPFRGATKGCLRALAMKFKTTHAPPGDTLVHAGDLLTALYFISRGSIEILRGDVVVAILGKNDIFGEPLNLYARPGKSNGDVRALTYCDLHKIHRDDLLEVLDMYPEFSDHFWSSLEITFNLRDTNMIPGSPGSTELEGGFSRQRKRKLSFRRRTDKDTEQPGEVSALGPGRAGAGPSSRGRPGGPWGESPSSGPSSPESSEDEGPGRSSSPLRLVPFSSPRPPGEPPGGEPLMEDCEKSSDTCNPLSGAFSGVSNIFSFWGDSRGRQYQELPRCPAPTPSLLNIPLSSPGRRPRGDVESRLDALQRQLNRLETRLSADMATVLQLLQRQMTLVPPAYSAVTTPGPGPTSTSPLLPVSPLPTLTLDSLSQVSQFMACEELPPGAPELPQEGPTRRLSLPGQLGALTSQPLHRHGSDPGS
row,SMILES,"hERG current change (%, negative = inhibition) at 10uM [%]"
1,COC(=O)C1=C(C)N(CCc2ccc(OC)cc2)C(=O)C1,-20.9
2,Cc1ccc(O)c(C2=NCCNC(C(F)(F)F)=C2)c1,3.37
3,CCOc1cc(/C=C2\SC(=NC)N(C)C2=O)c(Br)cc1OC(C)=O,19.8
4,Cc1ccc(S(=O)(=O)Nc2ccc(O)c(Sc3ncn[nH]3)c2)cc1,19.9
5,O=C(COC(=O)c1cncc(Br)c1)NCc1ccc(F)cc1,12.9
6,O=C1CC(c2ccco2)CC(O)=C1C=Nc1cc(Cl)cc(Cl)c1 (centres unmarked),-12.8
7,CN(C)S(=O)(=O)c1cccc(NC(=O)CO/N=C(\N)c2ccccc2)c1,-0.0551
8,COC(=O)c1ccccc1NC(=O)CN1CCOCC1,5.86
9,CCC(=O)N1CCN(c2ccc(NC(=S)NC(=O)c3cccc([N+](=O)[O-])c3)cc2)CC1,2.13
10,O=C(c1cc2n(n1)C(C(F)(F)F)CC(c1ccco1)N2)N1CCN(c2ccccn2)CC1 (centres unmarked),-3.66
11,O=C(NCC(=O)N1CCN(S(=O)(=O)c2ccccc2F)CC1)c1ccc2ccccc2c1,-12.2
12,CCCC1Nc2ccc(C(=O)O)cc2C2C=CCC12 (centres unmarked),-6.86
13,CC(C)n1cc(CNC(=O)C2CCC(=O)N(Cc3ccccc3F)C2)cn1 (centres unmarked),12.7
14,CCC(C)c1ccc(NC(=S)NCCn2cc(Br)cn2)cc1 (centres unmarked),5.94
15,COc1cccc(N=c2oc3ccc(OC)cc3cc2-c2nc3ccccc3[nH]2)c1,17.2
16,Cc1ccc2nc(-c3ccccc3)oc(=O)c2c1,8.48
17,O=C(Cc1ccccc1)Nc1cccc(N2CCCC2)c1,6.07
18,O=C1CN(C(=S)Nc2ccccc2Cl)CCN1,22.5
19,CN1CCCCC1CCN1c2ccccc2Sc2ccc(S(C)=O)cc21.O=S(=O)(O)c1ccccc1 (centres unmarked),-56
20,O=C(CN1CCOCC1)N/N=C/c1ccc(-c2cccc(Cl)c2Cl)o1,-73.4
21,NC(=O)C1CCN(CC(O)COc2ccc(-c3ccccc3)cc2)CC1 (centres unmarked),-34.4
22,O=S(=O)(c1ccccc1)N1CCN(C2CCN(Cc3ccccc3)CC2)CC1,-64

row,SMILES,"hERG current change (%, negative = inhibition) at 10uM [%]"
1,CC(=O)c1nc(N2C(=O)CC(Cc3cccc(C)c3)C2=O)sc1C (centres unmarked),-16.3
2,CC1Cc2ccccc2N1C(=O)c1cccnc1 (centres unmarked),-9.95
3,CC(C)=CCOc1ccc2c(C)c(CC(=O)N3C[C@H]4C[C@@H](C3)c3cccc(=O)n3C4)c(=O)oc2c1C,-57.3
4,COCC(=O)OCC(=O)c1cc(C)n(-c2ccc(Br)cc2)c1C,6.71
5,O=C(O)C1CCCCC1C(=O)Nc1ccccc1Nc1ccccc1 (centres unmarked),-2.1
6,COc1ccccc1-c1nnc(SCC(=O)Nc2ccc(N3CCOCC3)cc2)n1C,-8.3
7,COc1ccc(CCNC(=O)CNC(=O)Cn2ccc3ccccc3c2=O)cc1OC,8.51
8,Cc1ccc(NC(=O)CN2C(=S)NC(C)(C)CC2C)cc1Cl (centres unmarked),10.8
9,Cc1cc2c(n1-c1ccc(C(N)=O)cc1)CC(C)(C)CC2=O,5.21
10,CCOC(=O)N1CCC(N2C(=O)c3ccccc3C2Nc2cc(C(=O)OC)cc(C(=O)OC)c2)CC1 (centres unmarked),-17.5
11,CCCCOc1ccccc1NC(=O)CC1SC(=NCC)N(CC)C1=O (centres unmarked),3.4
12,CC(/C=N/NC(=O)CCn1nnc2ccccc21)=C\c1ccccc1,21.7
13,Cc1cccc(C(=O)Nc2cc(Cl)ccc2-n2cncn2)c1[N+](=O)[O-],-3.19
14,Cc1ccc(-c2nn(C)c(=O)c3ccccc23)cc1CNC(=O)CSc1nc2ccccc2o1,-21.5
15,NC(=O)c1ccc(-c2csnn2)cc1,-1.16
16,O=C(N1CCOCC1)N(CCN1CCOCC1)Cc1cccc(Cl)c1,1.45
17,Cn1c(=O)c2c(-c3ccccc3)n(Cc3cccnc3)cc2n(C)c1=O,1.59
18,O=C(O)CCC(=O)N1CCc2cc(S(=O)(=O)NCCc3ccc(Cl)cc3)ccc21,12.4
19,Cc1ccc(C(C)(C)NC(=O)C2CCC(=O)N(Cc3ccccc3F)C2)cc1 (centres unmarked),20.4
20,COc1cccc(-c2csc(N3CCN(C(=O)Nc4ccc(F)cc4)CC3)n2)c1,-15.7
21,CNc1cc(C)c(C#N)c2nc3ccccc3n12,-8.75
22,CCOc1ccc(N(CC(=O)N2CCC(Cc3ccccc3)CC2)S(C)(=O)=O)cc1,-7.78
